# PubChem BioAssay AID1240 (Sanford-Burnham Center for Chemical Genomics, 2008)
# The whole screen tested about 50,000 compounds, of which about 800 (1.6%) showed an effect of 50% or more. The list shows a part of the results.
# Target: Bcl-2-like protein 10 (Homo sapiens) (UniProt Q9HD36)
# Assay: Phenotype converters, Bcl-B/TR3 peptide binding displacement, primary biochemical FP (AID 1240);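 note: 0% = Bcl-B with tracer peptide and DMSO and 100% = tracer peptide lacking Bcl-B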
# Conditions: GST-Bcl-B / FITC-TR3 peptide fluorescence polarization; stronger effect = higher value; compound at 3.75 mg/L
# UniProt Q9HD36, sequence (Q9HD36 whole entry, looked up): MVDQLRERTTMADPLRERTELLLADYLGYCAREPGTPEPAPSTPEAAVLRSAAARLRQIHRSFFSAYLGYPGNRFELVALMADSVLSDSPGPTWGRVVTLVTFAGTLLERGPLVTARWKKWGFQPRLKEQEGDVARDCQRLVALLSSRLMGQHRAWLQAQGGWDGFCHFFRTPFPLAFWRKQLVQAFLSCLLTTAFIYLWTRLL
row,Compound,displacement [%]
1,CCOc1ccc(NC(=O)c2ccc(S(=O)(=O)N3CCOCC3)cc2)cc1,6.6
2,O=C(Cc1ccccc1)NCc1ccc(Cl)cc1,-5.1
3,CCOC(=O)/C(=C\c1cccc(Br)c1)NC(=O)c1ccccc1,-2.3
4,CCOc1cc(/C=C2\C(=O)NC(=O)N(c3ccc(Cl)cc3)C2=O)cc(I)c1OC,12.9
5,O=C1C(=O)N(CCO)C(c2ccccc2[N+](=O)[O-])/C1=C(\O)c1ccccc1 (stereo not drawn),-6.8
6,COc1ccc(/C=C2\NC(=O)C(C=NCc3ccccc3)=C2O)cc1,-9.3
7,COc1ccccc1CNC(=O)c1c(Cl)cccc1Cl,3.4
8,Cc1ccc(-c2nc3c(cnn3-c3ccccc3)c(=O)o2)cc1,7.2
9,COc1ccccc1C1SCCN1C(=O)/C=C\C(=O)O (stereo not drawn),11.2
10,COc1ccc(C)cc1NC(=O)C(=O)NCc1cccnc1,-13.8
11,Cc1ccc(OCC(=O)NNC(=O)CC#N)c(C)c1,-8.5
12,O=C1C(=Cc2cccc(OCc3ccccc3)c2)C(=O)c2ccccc21,38.5
13,O=S(=O)(c1ccc(Cl)c(Cl)c1)N1CCN(Cc2ccccc2)CC1,-8.7
14,COC(=O)C(Cc1ccccc1)NC(=O)c1ccccc1 (stereo not drawn),-10.3
15,C/C(=N\NC(=O)COc1ccc(Cl)cc1Cl)c1cccnc1,1.9
16,Cc1[nH]c2ccccc2c1/C=N/NC(=O)c1cccnc1,5.9
17,COc1ccc(C=NN2CCN(Cc3ccc(C)cc3C)CC2)cc1Br,9.1
18,O=C(Nc1nc(-c2ccc(Br)cc2)cs1)c1cc([N+](=O)[O-])ccc1Cl,-6.6
19,CC(=O)C1=C(O)C(=O)N(CCCC(=O)O)C1c1ccc([N+](=O)[O-])cc1 (stereo not drawn),-7.4
20,CC(C)(C)c1ccc(OCC(O)CN2CCN(c3ccccc3)CC2)cc1 (stereo not drawn),14.3
21,CCCOc1ccc(C2C(C(=O)OC)=C(C)N(C)C(C)=C2C(=O)OC)cc1,-12.5
22,CCOC(=O)c1c(C)[nH]c(N=Nc2cccc(OC)c2)c1C,4.2

row,Compound,displacement [%]
1,CCOc1ccc(NC(=O)/C=C\C(=O)O)cc1,-4.2
2,COc1ccccc1CNC(=O)c1ccc([N+](=O)[O-])o1,-12
3,COC(=O)c1ccc(C(=O)OC)c(NC(=O)C2CC3CCC2C3)c1 (stereo not drawn),-4.5
4,O=C(Nc1ccc(F)c([N+](=O)[O-])c1)c1cccc(OCc2ccccc2)c1,14.4
5,O=C1NCC(Cn2c3ccccc3c3ccccc32)O1 (stereo not drawn),-7.9
6,CN(/N=C/c1ccccc1Sc1ccccc1)c1ccccc1,9.4
7,CC1CCc2c(sc(N)c2C(=O)Nc2cccc(Cl)c2)C1 (stereo not drawn),-9.1
8,O=C(NCCNC(=O)c1cccc(O)c1)c1cccc(O)c1,12.7
9,CCN(CC)CCCNS(=O)(=O)c1ccc(C)cc1,-29.4
10,COc1ccc(C2/C(=C(\O)c3ccc(F)cc3)C(=O)C(=O)N2c2nncs2)cc1 (stereo not drawn),11
11,COc1ccc(OC)c(NC(=O)c2cc(Cl)c(OC)c(Cl)c2)c1,9.5
12,Cc1ccc(C(=O)O/N=C(\N)c2ccc(Cl)cc2)cc1,-7.4
13,O=C1/C(=C/c2cccc(Cl)c2Cl)SC(=S)N1c1ccc([N+](=O)[O-])cc1,2.1
14,COc1cc(/C=N/NC(=O)C(C)Nc2ccc(Cl)cc2)cc(OC)c1OC (stereo not drawn),4.4
15,CCOc1ccc(-n2nc3ccc(NC(=S)NC(=O)c4ccccc4Cl)cc3n2)cc1,-10.1
16,CCN1C(=O)NC(c2ccc([N+](=O)[O-])cc2)C(C(=O)OCCOc2ccccc2)=C1C (stereo not drawn),6.5
17,CCCNC1=CC(=O)C(NCCC)=CC1=O,-3.9
18,Cc1ccc(C)c(N(CC(=O)Nc2c(C)n(C)n(-c3ccccc3)c2=O)S(=O)(=O)c2ccccc2)c1,5.5
19,COc1ccc(NC(=O)O/N=C\c2ccccc2Cl)cc1,2.1
20,O=C(NCC1CCCO1)c1cc2n(n1)C(C(F)(F)F)CC(c1ccco1)N2 (stereo not drawn),0.4
21,Cc1ccc(-c2nc(N/N=C/c3cccc(F)c3)c3ccccc3n2)cc1,5
22,COc1ccc(Nc2nc(-c3ccc(C)cc3)c(C)s2)cc1,-9.4

row,Compound,displacement [%]
1,COc1ccc(N=C2SC(C(=O)N3CCN(c4ccc([N+](=O)[O-])cc4)CC3)CC(=O)N2C)cc1 (stereo not drawn),-12
2,COc1ccc2oc3ccc(OC)cc3c(=O)c2c1,-4.2
3,Oc1ccccc1/C=N/n1c(-c2ccccc2)n[nH]c1=S,-12.4
4,C=CC(=O)NC(NC(=O)C=C)c1ccc(OC)c(OC)c1,-5.5
5,Cc1ccc(-c2cc(C(=O)N3CCCCC3)c3ccccc3n2)s1,-11
6,CCN(CC)c1ccc(/C=C(\C#N)C(=O)Nc2ccc(OC)cc2)c(OC)c1,-6.6
7,Cc1c(C(=O)NCCCC(=O)O)c(-c2ccccc2)nn1-c1ccccc1,17.9
8,CCOC(=O)C1=C(O)/C(=C/c2ccccc2Cl)SC1=Nc1ccccc1,19.1
9,COc1ccc(/C=C/c2cc(C(F)(F)F)[nH]c(=O)n2)cc1,12.4
10,CN(C)c1ccc(C(O)(c2ccccc2)c2ccccc2)cc1,-21.3
11,CC1=NN(c2ccc(S(N)(=O)=O)cc2)C(=O)/C1=C\c1ccc2c(c1)OCO2,-13.4
12,COc1ccc(OC)c(N(CC(=O)N2CCN(c3ccccc3)CC2)S(=O)(=O)c2ccccc2)c1,-15.2
13,CCOC(=O)c1c(Cl)cc(Cl)c(N)c1[N+](=O)[O-],-9.9
14,O=C(c1cc(Br)ccc1Cl)N1CCN(c2ccc([N+](=O)[O-])cc2)CC1,9.6
15,COc1ccc(-c2csc(-c3nc(-c4ccc(OC)c(OC)c4)cs3)n2)cc1OC,-6.7
16,O=C1NC(=S)N(c2cccc(Br)c2)C(=O)/C1=C/c1ccccc1O,6.5
17,CC(N=C(NS(=O)(=O)c1ccc(Cl)cc1)c1ccccc1)C(=O)O (stereo not drawn),9.6
18,COc1cc(NC(=O)c2cccc(OCc3ccccc3)c2)ccc1NC(=O)c1ccco1,2.8
19,O=C1N=c2ccc(Br)cc2=C1c1sc(=S)n(NC(=O)c2ccccc2Cl)c1O,-3.2
20,CC1(C)CC(=O)C=C(Nc2cc([N+](=O)[O-])ccc2N)C1,-6.8
21,O=C(NN1C(=O)/C(=C\c2ccccc2Cl)SC1=S)c1ccc(Br)cc1,6.9
22,Cc1ccccc1NC(=O)C(=O)NCCc1ccc(Cl)cc1,16.2

row,Compound,displacement [%]
1,O=C1N=c2ccccc2=C1c1sc(N2CCCCC2)nc1O,8.1
2,CCOC(=O)c1ccc(NC(=O)CCCN2C(=O)/C(=C/c3ccc(OC)cc3)SC2=S)cc1,-3.5
3,CC(=O)Nc1ccccc1NC(=O)COc1ccc(C)cc1C,-0.3
4,CCOC(=O)C1=C(C)N=c2s/c(=C\c3ccc(OC)cc3)c(=O)n2C1c1ccc(OC)cc1 (stereo not drawn),-5.7
5,CC(=O)C1=C(O)C(=O)N(CC2CCCO2)C1c1ccc(C)cc1 (stereo not drawn),-0.8
6,Cc1cccc(OCCNc2cc(Cl)ccc2[N+](=O)[O-])c1,11.6
7,CCOC(=O)C1=C(C)N=c2s/c(=C\c3ccc([N+](=O)[O-])o3)c(=O)n2C1c1ccc(OCC)cc1 (stereo not drawn),14.7
8,O=C(COc1ccc(Br)cc1)Nc1cccnc1,2.3
9,c1ccc(CNCC2COc3ccccc3O2)cc1 (stereo not drawn),7.1
10,C=COCCNC(=O)C(=O)Nc1ccccc1C,4.4
11,Cc1ccc(OCC(=O)Nc2cc(C(=O)O)cc(C(=O)O)c2)cc1C,11.6
12,Cc1cccc(/C=C2\C(=O)NC(=O)N(c3cc(C)cc(C)c3)C2=O)c1,6.2
13,Cc1cccc(C)c1NC(=O)c1ccc(CN(c2ccccc2)S(C)(=O)=O)cc1,5.2
14,CCOC(=O)CCC(NC(=O)c1ccc(Cl)cc1)C(=O)OCC (stereo not drawn),3.1
15,O=C1C(Cl)=C(NC(=O)c2ccccc2)C(=O)C(Cl)=C1NC(=O)c1ccccc1,0.6
16,COc1ccccc1N1CCN(C(=O)c2cccc(I)c2)CC1,-10.3
17,CCOc1c(/C=C(\C#N)C(N)=O)c2ccccc2n1CC,-4.8
18,CCOC(=O)C1=C(C)NC(=O)NC1c1ccc(N(C)C)cc1 (stereo not drawn),-11.8
19,CCOc1ccc(NC(=O)c2cccc(-c3ccc(OC(C)=O)cc3)c2)cc1,8
20,O=C(NCc1ccco1)C1C2C3CCC(C3)C12 (stereo not drawn),-3.2
21,CC(=O)C(C(C)=O)C(c1ccc(C)o1)c1ccc(C)o1,-3.7
22,O=c1oc2cc(O)ccc2cc1-c1csc(-c2ccc(-c3ccccc3)cc2)n1,116

row,Compound,displacement [%]
1,Cc1cc(=O)[nH]c(SCc2ccc([N+](=O)[O-])cc2)n1,-7.4
2,Cc1ccc(S(=O)(=O)Nc2ccccc2-c2ccccc2)cc1[N+](=O)[O-],-2.7
3,Cc1cc(/C=C2/NC(=S)NC2=O)c(-c2ccccc2)n1-c1ccccc1,-14.7
4,O=C(c1cccc(C#Cc2ccccc2)c1)N1CCN(c2ccccc2F)CC1,-5.8
5,Oc1ccc2cc(Br)ccc2c1C=Nc1ccc(Br)cn1,8.7
6,COCc1cc(CN(C)C2CCCCC2)c(O)c2ncccc12,2.3
7,C/C(=N/N1CCN(Cc2ccccc2Cl)CC1)c1cccc([N+](=O)[O-])c1,-11.5
8,CCOC(=O)CCCC[C@H]1SC[C@@H](NC(=O)OC)[C@H]1NC(=O)OC,0
9,COc1ccc(C(=O)Nc2ccc(C(=O)O)cc2)cc1,5.1
10,COC(=O)c1ccc(NC(=O)CC2Sc3ccccc3NC2=O)cc1 (stereo not drawn),3.1
11,COc1cc(N2CCN(Cc3ccccc3)CC2)c([N+](=O)[O-])nc1[N+](=O)[O-],19.4
12,CC(N/C=C1/CC(=O)NC1=O)c1ccccc1 (stereo not drawn),7.1
13,COc1ccc(N2C(=O)NC(=O)/C(=C\c3cc(I)c(OC)c(OC)c3)C2=O)cc1,-5.6
14,O=[N+]([O-])c1ccccc1S(=O)(=O)NCCc1ccccc1,-13.3
15,O=C(Nc1ccc([N+](=O)[O-])cn1)c1cccnc1,12
16,COC(=O)c1ccc(/C=C2\SC(N3CCOCC3)=NC2=O)cc1,-13.4
17,Cc1ccc(/C=C/C(=O)Nc2ccc(F)c([N+](=O)[O-])c2)cc1,9.4
18,COc1ccc(/C=N/Nc2nc(C(F)(F)F)c(-c3ccc(F)cc3)s2)cc1OC,2.7
19,O=C(CCNc1n[nH]c(=O)[nH]c1=O)N/N=C/c1ccc(Cl)cc1,-12.4
20,COc1ccc(NC(=O)c2c(NC(=O)C(Cl)(Cl)Cl)sc3c2CCC3)cc1,16.4
